Measurements as given in publication PMC4336329 (PLoS ONE, 2015).
The campaign covered roughly 310,000 compounds. About 2,200 (0.71%) showed an effect of 50% or more. Effects have a minus sign here. The list shows a part of the results.

molecular target: human ether-à-go-go-related gene (hERG) potassium channel (human, UniProt Q12809); assay: primary screen, population patch clamp on CHO cells stably expressing hERG
Sequence (Q12809 whole entry, looked up): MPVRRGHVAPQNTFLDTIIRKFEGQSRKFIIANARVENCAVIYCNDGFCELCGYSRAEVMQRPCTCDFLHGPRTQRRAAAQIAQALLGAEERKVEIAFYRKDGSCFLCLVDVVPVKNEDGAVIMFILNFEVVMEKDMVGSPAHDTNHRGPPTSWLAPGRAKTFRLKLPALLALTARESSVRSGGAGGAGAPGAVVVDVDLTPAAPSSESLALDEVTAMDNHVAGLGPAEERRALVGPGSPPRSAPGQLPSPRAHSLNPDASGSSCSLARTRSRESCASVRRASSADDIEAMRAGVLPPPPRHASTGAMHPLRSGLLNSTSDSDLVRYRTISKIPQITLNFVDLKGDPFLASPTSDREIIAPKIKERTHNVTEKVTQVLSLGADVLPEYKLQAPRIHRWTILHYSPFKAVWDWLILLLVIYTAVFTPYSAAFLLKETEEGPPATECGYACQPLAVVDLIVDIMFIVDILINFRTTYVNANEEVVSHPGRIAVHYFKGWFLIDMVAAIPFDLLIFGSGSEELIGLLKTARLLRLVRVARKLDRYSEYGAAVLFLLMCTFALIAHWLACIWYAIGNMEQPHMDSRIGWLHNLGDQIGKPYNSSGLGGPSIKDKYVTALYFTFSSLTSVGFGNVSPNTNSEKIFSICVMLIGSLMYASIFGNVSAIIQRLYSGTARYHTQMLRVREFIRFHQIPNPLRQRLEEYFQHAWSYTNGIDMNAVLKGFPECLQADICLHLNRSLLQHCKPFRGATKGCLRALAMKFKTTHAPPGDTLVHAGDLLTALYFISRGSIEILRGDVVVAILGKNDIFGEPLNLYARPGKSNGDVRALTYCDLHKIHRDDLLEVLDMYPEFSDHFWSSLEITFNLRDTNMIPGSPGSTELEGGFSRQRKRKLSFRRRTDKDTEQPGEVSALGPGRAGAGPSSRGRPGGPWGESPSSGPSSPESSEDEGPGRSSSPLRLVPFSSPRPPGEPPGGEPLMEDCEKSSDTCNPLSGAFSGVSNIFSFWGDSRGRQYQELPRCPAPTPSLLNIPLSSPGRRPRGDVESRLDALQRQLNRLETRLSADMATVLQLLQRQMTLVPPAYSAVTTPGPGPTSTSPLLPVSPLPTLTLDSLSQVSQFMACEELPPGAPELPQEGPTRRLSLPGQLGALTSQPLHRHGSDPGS

| SMILES | hERG current change (%, negative = inhibition) at 1uM [%] |
| --- | --- |
| CN1CCN(C(=O)C2CCC(C)(C(=O)O)C2(C)C)CC1 (stereo not drawn) | 6.21 |
| COc1ccccc1N1CCN(c2cc(C)nc3nc(C)nn23)CC1 | -32.6 |
| O=c1cc[nH]c2cc(C(F)(F)F)ccc12 | 19.7 |
| CC(C)CNC(=O)c1cccc(NC(=O)c2ccccc2-c2ccccc2C(=O)O)c1 | 3.39 |
| Cc1cccc(CC(Cc2nc3ccccc3[nH]2)c2nc3ccccc3[nH]2)c1 (stereo not drawn) | 10.5 |
| CN1CCN(Cc2nc3ccccc3n2C)CC1CCO (stereo not drawn) | 10.4 |
| COc1ccccc1CNC(=O)C/C(C)=N/NC(=O)Cc1ccc(Cl)cc1 | 7.97 |
| CCCCCC(=O)Nc1cccc(C2=NOC3(C2)C[C@H](C(N)=O)N(C(=O)CC)C3)c1 (stereo partly drawn) | 7.78 |
| CSc1ccccc1NC(=O)c1cc2ncc(Br)cn2n1 | 5.29 |
| CC1(c2ccccc2)NCCN2C(=O)CSC21.Cl (stereo not drawn) | 14.2 |
| CCC1CCCCN1C(=O)Cn1c(=O)n(CCCC(=O)NCc2ccco2)c(=O)c2sccc21 (stereo not drawn) | 13.3 |
| O=C(NCCSc1ncc(-c2ccc(F)cc2)[nH]1)c1ccc2c(c1)OCO2 | 3.92 |
| COc1ccc(-c2nnc(SCC(=O)NC3CCCc4ccccc43)n2N)cc1 (stereo not drawn) | 2.39 |
| CNC(=O)C(=O)NCC1OCCN1S(=O)(=O)c1ccc2c(c1)OCCO2 (stereo not drawn) | 14.7 |
| COc1cnc(SCc2ccc(Cl)c(Cl)c2)nc1Cl | -5.73 |
| CCOC(=O)c1ccc(NC(=O)Cn2nnc(-c3ccc(C)cc3)n2)cc1 | 4.07 |
| CCOc1nc(NCCO)nc(Nc2ccc([N+](=O)[O-])cc2)n1 | 5.3 |
| COc1ccc(S(=O)(=O)N2CCOC2CNC(=O)C(=O)NCCc2ccccc2)cc1OC (stereo not drawn) | 9.48 |
| COc1ccccc1N1CCN(C(=O)Cn2c(=O)[nH]c3ccsc3c2=O)CC1 | 8.27 |

| SMILES | hERG current change (%, negative = inhibition) at 1uM [%] |
| --- | --- |
| O=C1OCCC1Sc1nc2ccccc2[nH]1 (stereo not drawn) | 12.3 |
| Cc1cccc(NC(=S)NC23CN4CN(CN(C4)C2)C3)c1C | 2.71 |
| CSCCC(NC(=O)c1cc(S(=O)(=O)N2CCOCC2)ccc1F)c1nc2ccccc2[nH]1 (stereo not drawn) | 14.1 |
| Cc1ccccc1NC(=O)c1cc(S(=O)(=O)Nc2cccc(C(=O)O)c2)ccc1Cl | 16.5 |
| CC(Sc1ncnc2ccccc12)C(=O)Nc1ccc2c(c1)OCO2 (stereo not drawn) | 7.54 |
| CCOC(=O)CNC(=O)c1cc(C)oc1C | 3.45 |
| COc1ccc(Br)cc1S(=O)(=O)N1CCN=C1c1ccccc1 | 5.74 |
| CCOC(=O)C1CCN(S(=O)(=O)c2ccc(CN3C(=O)c4cccnc4C3=O)cc2)CC1 | 11.3 |
| Cc1cnc(C(=O)OC(C(=O)Nc2cc(C(F)(F)F)ccc2Cl)c2ccccc2)cn1 (stereo not drawn) | -14.8 |
| O=C(Nc1cccc(Cl)c1)c1ccc(F)c(S(=O)(=O)NCc2cccs2)c1 | 4.46 |
| CCc1ccc(NC(=O)c2noc3c2CCc2ccccc2-3)cc1 | -3.55 |
| CCOc1ccccc1NC(=O)NCCC1=CCCCC1 | -4.85 |
| NC(=O)c1ccc(NC(=O)C#Cc2ccccc2)cc1 | 14.7 |
| O=C(COc1cccc2cccnc12)N/N=C/c1ccc(O)cc1 | 9.1 |
| O=C(NCc1cccc(Cl)c1)C1CCC(=O)N(CCN2CCOCC2)C1 (stereo not drawn) | 25.2 |
| CC(C)=C1C2C=CC1C1C(=O)N(c3ccc4c(c3)OCO4)C(=O)C21 (stereo not drawn) | 8.96 |
| Cc1ccc(OCCN2C(=O)C(=O)c3cccc(C)c32)cc1 | 4.13 |
| O=C(COC(=O)Cc1cccs1)Nc1cccc(S(=O)(=O)N2CCOCC2)c1 | 1.95 |
| Cc1cccc(CSc2cn(CC(=O)N3CCOCC3)c3ccccc23)c1 | 5.07 |

| SMILES | hERG current change (%, negative = inhibition) at 1uM [%] |
| --- | --- |
| Cc1nn(CC(=O)N2CC(=O)Nc3ccccc32)c(C)c1[N+](=O)[O-] | 21.8 |
| CCN(CCCNC(=O)C1CCC(=O)N1Cc1ccccc1Cl)c1cccc(C)c1 (stereo not drawn) | -9.57 |
| CN(c1ccc(OCC(=O)N2CCOCC2)cc1)S(=O)(=O)c1ccc(Cl)cc1 | 7.86 |
| Cc1cc(=O)oc2cc(OCCSc3nnc(-c4ccccc4)o3)ccc12 | 7.17 |
| CCCc1cc(=O)[nH]c(SCC(=O)N(C)CC(=O)Nc2ccc(C)cc2)n1 | -0.836 |
| COc1ccc(CCCc2nnc(SCC(=O)Nc3ccc(OC)cc3)o2)cc1 | 15.1 |
| O=C(NCCS(=O)(=O)c1ccc(Cl)cc1)c1ccc(F)cc1 | 5.27 |
| O=C(Nc1c(C(=O)N2CCOCC2)cnn1-c1ccccc1Cl)c1ccco1 | 4.04 |
| CN(c1ccccc1)S(=O)(=O)c1ccc(Cl)c(C(=O)Nc2nc3ccccc3[nH]2)c1 | 10.8 |
| Cc1ccc(C2NC(=O)c3ccccc3O2)cc1 (stereo not drawn) | 11.8 |
| O=C(C[n+]1ccccc1)c1ccc(NC(=O)c2ccccc2)cc1.[I-] | 7.29 |
| CC1(C)CC(=O)C2=C(C1)N(Cc1ccco1)C(=O)C2(NC(=O)C1CCCCC1)C(F)(F)F (stereo not drawn) | 5.43 |
| COc1ccc(OC)c(NC(=O)CSc2nnc(C)n2Cc2ccccc2)c1 | -3.69 |
| CCOc1ccc(C(=O)NC(Cc2ccccc2)C(=O)OC)cc1 (stereo not drawn) | 4.27 |
| CCCN1CCN(C(=O)c2cc(COc3ccc(F)cc3F)on2)CC1 | 9.53 |
| CCCCN(CC)Cc1ccc(CNC(=O)Nc2ccc(Cl)cc2)o1 | -6.02 |
| c1csc(C(c2nnnn2C2CCCCC2)N2CCCC3(CCCCC3)C2)c1 (stereo not drawn) | 16.9 |
| Cc1cc(C)n2ncnc2n1 | 7.65 |
| Cc1c(CC(=O)O)c(=O)oc2cc3c(cc12)CCC(C)(C)O3 | 10.4 |
